Laboratory results as given in the antibiotic and cytotoxicity screens of Wong et al. (2023).
The list shows a part of the results.

Columns and labels:
HSkMC = human skeletal muscle cells; test: cytotoxicity call (relative viability < 0.9); conditions: 10 µM
HepG2 = test: cytotoxicity call (relative viability < 0.9); conditions: 10 µM
S. aureus RN4220 = test: growth inhibition call (relative growth <= 0.2); conditions: 50 µM

SMILES | cytotoxicity call (HSkMC) | cytotoxicity call (HepG2) | growth inhibition call (S. aureus RN4220)
Cc1noc(C)c1S(=O)(=O)N(C)C[C@H]1Oc2ccc(NS(=O)(=O)c3ccccc3)cc2CC(=O)N([C@@H](C)CO)C[C@@H]1C | inactive | inactive | inactive
Cc1noc(C)c1NC(=O)Nc1ccc2c(c1)C(=O)N([C@@H](C)CO)C[C@H](C)[C@@H](CN(C)Cc1ccncc1)OCCCC[C@@H](C)O2 | inactive | inactive | inactive
Cc1noc(C)c1NC(=O)N(C)C[C@H]1Oc2ccc(NS(=O)(=O)c3c(C)noc3C)cc2CC(=O)N([C@@H](C)CO)C[C@H]1C | inactive | inactive | inactive
CO[C@@H]1CN(C)C(=O)c2cc(NC(=O)NC3CCCCC3)ccc2OC[C@H](C)N(CCc2ccccc2)C[C@H]1C | inactive | active | inactive
Cc1ccc(S(=O)(=O)Nc2ccc3c(c2)C(=O)N([C@@H](C)CO)C[C@H](C)[C@H](CN(C)S(=O)(=O)c2ccc(C)cc2)OCCCC[C@@H](C)O3)cc1 | inactive | inactive | inactive
COCC#Cc1cnc2c(c1)C(=O)N([C@@H](C)CO)C[C@@H](C)[C@H](CN(C)C(=O)CN1CCOCC1)O2 | inactive | inactive | inactive
CN1C(=O)c2cc(NC(=O)c3cccs3)ccc2OC[C@H]2O[C@@H](CC(=O)NCCN3CCCCC3)CC[C@H]21 | inactive | inactive | inactive
CCCN(C)C[C@@H]1OCCCC[C@H](C)Oc2ccc(NC(=O)Nc3cccc4ccccc34)cc2C(=O)N([C@H](C)CO)C[C@@H]1C | inactive | inactive | inactive
COC(=O)CC1C(C)(C)C(=O)C2CC3=C(CCC4(C)C3=CC(=O)OC4c3ccoc3)C1(C)C2=O (stereo not given) | inactive | inactive | inactive
C[C@H](CO)N1C[C@H](C)[C@H](CN(C)C(=O)c2ccc3c(c2)OCO3)Oc2ncc(C#Cc3ccccc3F)cc2C1=O | inactive | inactive | inactive
C[C@@H]1CN([C@H](C)CO)C(=O)CCCn2cc(nn2)CO[C@H]1CN(C)C(=O)Nc1cccc(Oc2ccccn2)c1 | inactive | inactive | inactive
COCC#Cc1ccc2c(c1)O[C@@H](CN(C)Cc1ccc(F)cc1)[C@@H](C)CN([C@@H](C)CO)S2(=O)=O | inactive | inactive | inactive
C[C@H]1CN([C@@H](C)CO)C(=O)Cc2cc(NC(=O)Nc3ccc4c(c3)OCO4)ccc2O[C@@H]1CN(C)Cc1ccc(-c2ccccc2)cc1 | inactive | active | inactive
CC(C)NC(=O)N(C)C[C@@H]1Oc2ccc(NC(=O)CCN3CCOCC3)cc2C(=O)N([C@H](C)CO)C[C@H]1C | inactive | inactive | inactive
C[C@H](CO)N1C[C@H](C)[C@H](CN(C)CC2CCCCC2)OCCCC[C@H](C)Oc2ccc(NC(=O)Nc3ccc(F)cc3)cc2C1=O | active | active | inactive
